Experimental data as given in PubChem BioAssay AID1508623 (National Center for Advancing Translational Sciences (NCATS), 2021).
Among all 48,000 compounds or so, about 450 (0.94%) were called active. Inconclusive results (about 19%) are left out. Calls come from the whole dose curve; as a rule, active = well fitted inhibition curve with a large enough effect; inconclusive = small, poorly fitted or top-dose-only effect; inactive = no such curve, though single readings can be large or run the other way. This is one part of the list.

assay: Primary qHTS for Identification of Small Molecule Inhibitors of Huntingtin Promoter Activity; details: HEK293 HTT promoter firefly luciferase reporter (activity 0% = vehicle and -100% = no light), 24 h; series mostly up to 57.5 µM; activity change, negative = inhibition: at the top concentration; note: nearly all actives have a fitted effect of over 50% in size
Procedure, shortened: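 Firefly luciferase signal from promoter-reporter HEK293 cells was scaled between vehicle (0%) and zero RLU (-100%). Compounds were tested at final concentrations of up to 57.5 uM over 24 h at 37 degrees C. PTC124 at 50 uM final served as control inhibitor.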

Compound | activity change, negative = inhibition
O=C(NCc1ccc(F)cc1)c1cc(-c2ccc(Cl)cc2)n[nH]1 | inactive: -6.41%
CCC(C)NC(=O)CCSc1nc(-c2ccc(OC)cc2)cc(C(F)(F)F)n1 (centres undefined) | inactive: -29.3%
CCc1ccc(S(=O)(=O)c2nnn3c2nc(Nc2ccc(F)cc2)c2cc(Cl)ccc23)cc1 | inactive: 0.414%
O=C(O)c1cccc(Nc2ncnc3scc(-c4ccccc4)c23)c1 | inactive: -21.4%
COc1ccc(NC(=O)c2cc(CN3CCCC3)on2)cc1Cl | inactive: 50.3%
Nc1ccc(S(=O)(=O)Nc2ncccn2)cc1 | inactive: 8.11%
Cc1ccccc1C(=O)Oc1c(Sc2ccccc2)c(C)nn1C(C)(C)C | inactive: -22.8%
Cc1ccc(C(=O)Nc2nnc(S(=O)(=O)N3CCc4ccccc43)s2)cc1 | inactive: -15.5%
COc1ccc(CCNC(=O)Cn2ncc3c(=O)oc4ccccc4c32)c(OC)c1 | inactive: -14.7%
CCOc1ccc(NC(=O)c2oc3ccccc3c2NC(=O)c2cc(C)cc(C)c2)cc1 | inactive: -10.1%
CCOc1ccc(NC(=O)c2cnc(Nc3ccccc3OC)c3ccccc23)cc1 | inactive: 57.4%
COc1ccc(CC(=O)NCc2ccc3c(c2)CCN3C(=O)c2ccc(Cl)cc2)cc1 | inactive: -13.9%
CCc1ccc2oc(-c3cc(NC(=O)c4cccnc4)cc(C)c3O)nc2c1 | inactive: 3.95%
CCOc1ccc(CCNC(=O)CCSCc2ccc(Cl)cc2)cc1OCC | inactive: -29.1%
Cc1cccc(Cc2c(C)nc3nc(SCC(=O)NCc4ccccc4)nn3c2C)c1 | inactive: -32.4%
CCOC(=O)CSc1nc2sc3c(c2c(=O)n1-c1ccccc1)CCC(C(C)(C)C)C3 (centres undefined) | inactive: -10.3%
O=C(Nc1cccc(Br)c1)N1CCC(CN2CCCCCC2)CC1 | inactive: -9.24%
COc1cccc(CNC(=O)CN(c2ccc(C(C)C)cc2)S(=O)(=O)c2c(C)noc2C)c1 | inactive: -27.5%
CCOC(=O)c1sc(NC(=O)c2cc3nc(-c4ccccc4)cc(C(F)(F)F)n3n2)c(C(=O)OCC)c1C | inactive: -11.4%
Cc1cc(C)cc(Oc2c(C(F)(F)F)oc3cc(OCC(=O)NC4CCCCC4)ccc3c2=O)c1 | inactive: -13.8%
Cn1c(=O)oc2cc(S(=O)(=O)N3CCC(C(=O)Nc4ccc(F)c(Cl)c4)CC3)ccc21 | inactive: -14.8%
CCOC(=O)N1CCc2c(sc3c2c(=O)n(-c2ccc(CC)cc2)c(=O)n3Cc2cccc(Cl)c2)C1 | inactive: -6.8%
CCC1CN(C(=O)N2CCC(C(=O)NCCc3ccc(OC)c(OC)c3)CC2)c2ccccc2O1 (centres undefined) | inactive: -14.2%
Cc1ccc(CNC(=O)CSc2c(C)cnc3c2c(=O)n(C)c(=O)n3C)cc1 | inactive: 35.6%
Cc1ccc(NC(=O)C2CCN(S(=O)(=O)c3cccc4nsnc34)CC2)cc1 | inactive: -25.6%

Compound | activity change, negative = inhibition
CCn1cc(C(=O)OCC(=O)Nc2cc(Cl)ccc2C)c(=O)c2ccc(C)nc21 | inactive: -6.45%
CCCCOc1ccc(C2C(=O)N(C3CCCCC3)CC(=O)N2C2CCCCC2)cc1 (centres undefined) | inactive: -5.51%
Cc1ccc(C)c(N2CCN(C(=O)c3cc4cc5ccc(C)cc5nc4o3)CC2)c1 | inactive: -6.18%
CCc1cccc(NC(=O)Cn2c(=O)n(CCCCCC(=O)NCc3ccc(F)cc3)c(=O)c3sccc32)c1 | inactive: -29.8%
C=CCc1cc(OC)c(O)c(C(=O)NCCO)c1 | inactive
CCn1nc(C)c2c(-c3ccccc3)cc(=O)n(C(C)C(=O)Nc3ccc(OC)c(OC)c3)c21 (centres undefined) | inactive: -30.2%
COc1ccc(C2C=C(c3ccccc3)Nc3nc(NC(C)=O)nn32)cc1 (centres undefined) | inactive: -10.8%
CCOC(=O)c1ccccc1NC(=O)CN(c1ccccc1)S(=O)(=O)c1ccc(OCC)cc1 | inactive: -27.8%
Cc1cccc(NC(=O)Nc2cccs2)c1C | inactive: -1.84%
CO[C@@]1(NC(=O)C(C(=O)O)c2ccc(O)cc2)C(=O)N2C(C(=O)O)=C(CSc3nnnn3C)CO[C@@H]21 (some centres undefined) | inactive: 15.7%
CCCCCCc1c(C)c2c(cc(C)c3c(C)coc32)oc1=O | inactive: 7.53%
Cc1ccc(C)c(NC(=O)Cn2ncc3c(C)n(Cc4ccc(F)cc4)c(C)c3c2=O)c1 | inactive: -12.5%
N#C/C(=C\c1ccc(O)cc1)C(=O)NCC1CCCO1 (centres undefined) | inactive: 20.2%
CC1=C(c2ccc(C)c(C)c2)S(=O)(=O)N(Cc2ccc(C(=O)NCc3ccccc3F)cc2)C1=O | inactive: -37.9%
Cc1cc(C)cc(NC(=O)Cn2nnc(-c3ccccc3F)n2)c1 | inactive: -17.8%
CCC1CCCCN1CCCNC(=O)c1ccc2c(c1)c(C)c(C)n2CC (centres undefined) | inactive: -3.58%
Cc1ccc(C)c(OCC(=O)Nc2sc3c(c2C#N)CCCC3)c1C | inactive: -21.2%
CCOC(=O)c1c(Nc2ccc(C)c(C)c2)nnc(-c2ccccc2)c1-c1ccccc1 | inactive: -26.2%
O=C(NCCc1ccccc1)c1c[nH]c2ccc(S(=O)(=O)Nc3ccc(F)cc3F)cc2c1=O | inactive: -12.8%
CCCC(=O)Nc1cc2nn(-c3ccc(OC)cc3)nc2cc1C | inactive: 52.6%
COc1ccc(CNC(=O)CN2N=C(c3ccc(Cl)cc3)CCC2=O)cc1 | inactive: 0.0545%
Cc1cc(C)c(NC(=O)Cn2c(=O)n(CCC(C)C)c(=O)c3cccnc32)c(C)c1 | inactive: 7.21%
COc1ccc(-c2nn(C)c3sc(C(=O)NCCN(C)C)cc23)cc1OC | inactive: 5.5%
CCc1ccc(C(=O)c2cn(CC(=O)NCCc3ccccc3)c3nc(C)ccc3c2=O)cc1 | inactive: 4.85%
COc1cccc(NC(=O)C2CCCN(c3ncnc4onc(-c5ccc(F)cc5)c34)C2)c1 (centres undefined) | inactive: -9.24%

Compound | activity change, negative = inhibition
O=C(NCCSc1c[nH]c2ccccc12)c1ccc(Cl)cc1 | inactive: -1.58%
Cc1ccc(N2CC(NC(=O)CCCc3ccccc3)CC2=O)cc1 (centres undefined) | inactive: -18.9%
O=C(NCCc1ccccc1)c1ccc2c(c1)N(Cc1ccc(Cl)cc1)C(=O)c1ccccc1S2(=O)=O | inactive: 3.31%
CCN(c1ccccc1C)S(=O)(=O)c1nnc(NC(=O)c2ccc(OC)c(OC)c2)s1 | inactive: -25.7%
Cc1ccc(C2=Nc3ccccc3N=C(c3ccc(F)cc3)C2)c(O)c1 | inactive: -3.37%
CCc1nc(SC)ncc1C(=O)NCc1cccc(Br)c1 | inactive: -6.01%
O=C(Cn1nc(Cc2cccnc2)c2ccccc2c1=O)N1CCN(c2ccccc2F)CC1 | inactive: -14.5%
Cc1ccc(Cl)cc1N1CCN(c2nc3ccc(C(=O)c4ccccc4)cc3n3cnnc23)CC1 | inactive: -23.3%
COc1ccc(CNC(=O)c2ccc(CN3C(=O)C(C)=C(c4ccc(C)cc4)S3(=O)=O)cc2)cc1 | inactive: -24.9%
Cc1ccc(-n2ncc(C(=O)Nc3ccc4c(c3)OCCO4)c2C2CCN(C(=O)OC(C)(C)C)CC2)cc1C | inactive: -5.05%
CC1=C(C(=O)NCc2cccc(F)c2)C2(CCCCCC2)OC1=O | inactive: -6.22%
COc1ccc(CNC(=O)c2cc(-c3ccc(Br)s3)nc3ccccc23)c(OC)c1 | inactive: -19.4%
COc1ccc(Nc2nc3ccc(C)cc3nc2-n2nc(C)cc2C)cc1Cl | inactive: -5.33%
COCCN1CCc2nc(SCC(=O)Nc3ccc(C)c(Cl)c3)[nH]c(=O)c2C1 | inactive: 0.714%
CCOc1ccccc1CNC(=O)Cn1c(=O)c2cccn2c2ccc(F)cc21 | inactive: -2.71%
COc1ccc(-c2onc(C)c2C)cc1S(=O)(=O)NCc1cccs1 | inactive: -17%
CCOC(=O)c1noc2ncn(CC(=O)Nc3ccc(F)cc3Cl)c(=O)c12 | inactive: -5.19%
CC1=C(C(=O)OCc2ccc(C)cc2)C(c2ccccc2C(F)(F)F)CC(=O)N1 (centres undefined) | inactive: -28.4%
CC1CCCCN1Cc1c(O)ccc2c(=O)c(-c3ccc(Cl)cc3)c(C(F)(F)F)oc12 (centres undefined) | inactive: -18.6%
Cc1ccc(OCCSc2nc3ccccc3n2CC(=O)N2CCOCC2)cc1 | inactive: -8.41%
CCOC(=O)c1sc2ncn(CC(=O)Nc3ccc(F)cc3F)c(=O)c2c1C | inactive: -7.2%
COC(=O)c1c(NC(=O)c2ccc(Cl)c(Cl)c2)sc2c1CCCC2 | inactive: 8.51%
CCOc1ccc(NC(=O)CSc2nnc3scc(-c4ccccc4)n23)cc1 | inactive: -31.7%
Nc1cc(C(F)(F)F)ccc1S | inactive: -2.74%
O=C1CC[C@@H](C(=O)O)N1 | inactive: 4.78%

Compound | activity change, negative = inhibition
CCc1ccccc1NC(=O)c1cc(-c2ccc(Cl)s2)nc2ccccc12 | inactive: -20.7%
COc1ccc(OC)c(CNC(=O)CCCn2c(=O)c3cccn3c3cccnc32)c1 | inactive: -11.4%
COc1ccccc1-c1nnc(C2CCN(C(=O)c3ccccc3C)CC2)o1 | inactive: -16.9%
Cc1cccc(-n2c(C)cc(C(=O)C(=O)Nc3nncs3)c2C)c1 | inactive: 5.85%
CCOC(=O)CSc1nc2ccc(NC(=O)c3ccc(Cl)cc3)cc2s1 | inactive: 12.4%
Cc1cc2c(cc1C1(c3ccc(C(=O)O)cn3)CC1)C(C)(C)CCC2(C)C | inactive: -3.37%
COC(=O)c1ccc(NC(=O)C2CCN(c3ncnc4c3nc3n4CCCCC3)CC2)cc1 | inactive: 6.19%
Cc1cc(C)cc(NC(=O)CSc2c(C(C)C)cnc3c2c(=O)n(C)c(=O)n3C)c1 | inactive: -6.71%
Cc1cc(Nc2nc3ccccc3c3nnc(C)n23)ccc1Br | inactive: -22.2%
Cc1cc(C)cc(Nc2cc(C(=O)NC3CCCCC3)c3ccccc3n2)c1 | inactive: -10.3%
CCOC(=O)c1ccccc1NC(=O)CSc1nnc(CC)n2c1cc1occc12 | inactive: -8.19%
CCCCc1ccc(C(=O)Nc2ccc3nc(N4CCN(CC)CC4)cc(C)c3c2)cc1 | inactive: -1.86%
Fc1ccc(-c2cc3ncc4c(n3n2)-c2cc(Cl)ccc2OC4)cc1 | inactive: -0.951%
O=C(O)CNC(=O)c1ccccc1 | inactive: 1.25%
Cc1ccccc1Nc1ncnc2c1cnn2C | inactive: -6.43%
Cc1ccccc1OCC(=O)Nc1ccc(-c2nc3ncccc3o2)cc1 | inactive: 62.9%
CCCCN(CC)CCNC(=O)c1cc2c(=O)[nH]c3ccccc3c2n1C | inactive: -3.89%
O=C(NCc1ccc(F)cc1)c1ccc2c(O)c(S(=O)(=O)c3ccccc3)c(=O)[nH]c2c1 | inactive: 5.97%
Cc1ccccc1NS(=O)(=O)c1ccc2[nH]cc(C(=O)N3CCCCC3)c(=O)c2c1 | inactive: -11.8%
COc1ccc(C)cc1-n1nnc(-c2nc(-c3ccccc3Cl)no2)c1N | inactive: 2.42%
CCCc1nc2ccccc2n2c(-c3ccccc3)c3c(=O)n(C)c(=O)n(C)c3c12 | inactive: -18.6%
Cc1ccccc1CN1C(=O)c2ccccc2Sc2ccc(C(=O)N3CCCC3)cc21 | inactive: -17.9%
CCN(C(=O)c1coc(=O)c2ccccc12)c1ccccc1C | inactive: -9.7%
CC(C)c1ccc(C(=O)Nc2cc(-c3ccccc3F)nn2-c2ccccc2)cc1 | inactive: -39%
